Measured values published in PubChem BioAssay AID1460 (National Center for Advancing Translational Sciences (NCATS), 2008).
Screen size: about 270,000 compounds; about 5,800 (2.1%) were called active. The inconclusive results got no clear call from the source; some entries with a clear call stand among them for comparison. Calls come from the whole dose curve; as a rule, active = well fitted inhibition curve with a large enough effect; inconclusive = small, poorly fitted or top-dose-only effect; inactive = flat fitted curve, though single readings scatter. A potency beside an inconclusive call is a rough fit, not a confirmed value.

Each compound was assayed against Microtubule-associated protein tau (Homo sapiens) (UniProt P10636) (assay: qHTS for Inhibitors of Tau Fibril Formation, Thioflavin T Binding). Settings: recombinant tau K18 P301L (four-repeat tau fragment), heparin-induced fibrillization, ThT fluorescence; series mostly up to 57.4 µM.
UniProt P10636, sequence (P10636 whole entry, looked up, the tested form may be a part): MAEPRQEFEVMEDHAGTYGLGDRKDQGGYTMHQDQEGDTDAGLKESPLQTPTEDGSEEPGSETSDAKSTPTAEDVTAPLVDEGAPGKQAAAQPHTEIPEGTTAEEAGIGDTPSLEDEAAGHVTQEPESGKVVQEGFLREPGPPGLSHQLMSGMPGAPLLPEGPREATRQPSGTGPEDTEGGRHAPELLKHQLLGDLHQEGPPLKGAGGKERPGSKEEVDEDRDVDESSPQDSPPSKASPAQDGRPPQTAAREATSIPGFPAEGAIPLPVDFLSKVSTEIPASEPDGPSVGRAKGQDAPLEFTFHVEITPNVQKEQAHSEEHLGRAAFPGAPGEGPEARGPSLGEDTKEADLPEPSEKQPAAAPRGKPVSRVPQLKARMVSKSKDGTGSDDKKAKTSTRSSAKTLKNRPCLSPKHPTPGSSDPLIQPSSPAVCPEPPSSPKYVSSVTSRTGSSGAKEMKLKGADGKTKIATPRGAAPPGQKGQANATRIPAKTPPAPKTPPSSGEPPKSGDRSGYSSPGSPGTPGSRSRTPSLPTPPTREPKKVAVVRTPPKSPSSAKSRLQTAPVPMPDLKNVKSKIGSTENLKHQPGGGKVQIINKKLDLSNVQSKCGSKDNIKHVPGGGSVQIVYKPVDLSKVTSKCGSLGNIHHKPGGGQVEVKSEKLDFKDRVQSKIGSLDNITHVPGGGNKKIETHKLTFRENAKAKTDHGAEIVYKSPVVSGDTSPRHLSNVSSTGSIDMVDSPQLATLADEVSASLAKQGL
Outline: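 Aggregation was driven by heparin (20 uM final) acting on recombinant tau […] bearing P301L in 100 mM sodium acetate pH 7; fibrils were detected with Thioflavin T.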
Note: nearly all actives have a fitted effect of over 55% in size.
Potency is the fitted concentration of half-maximal effect; tags give direction and shape of the fitted curve.

Q: With `Cc1nn(-c2ccccc2)c2c1N(CC(=O)N1CCN(c3ccc(F)cc3)CC1)C(=O)CS2` as the compound, how does the Potency read?
A: inactive

Q: With `Cc1cc(-c2csc(NC(=O)c3cccc(S(=O)(=O)N(C)C)c3)n2)c(C)n1-c1ccccc1` as the compound, how does the Potency read?
A: inconclusive: 17.8 µM [inhibitor, partial curve, poor fit]

Q: For `C/C(=N\NC(=O)c1ccc(OC2CCCC2)cc1)c1ccc(C)s1`, which Potency is on record?
A: inconclusive: 2.24 µM [inhibitor, full curve, poor fit]

Q: How did the Potency turn out when `COCCOC(=O)C1=C(C)NC2(O)c3ccccc3C(=O)C12O` (stereo not drawn) was run?
A: active: 11.2 µM

Q: For `O/N=C/c1ccccc1Oc1ccccc1`, which Potency is on record?
A: inactive

Q: `O=C1C2C3C=CC(C3)C2C(=O)N1c1ccc(N2CCN(c3ccccn3)CC2)c([N+](=O)[O-])c1` (stereo not drawn) was tested. Which Potency did it give?
A: inconclusive: 17.8 µM [inhibitor, partial curve]

Q: With `CC1(C)CC(=O)C2=C(C1)OC(N)=C([N+](=O)[O-])C2c1ccc(F)cc1` (stereo not drawn) as the compound, how does the Potency read?
A: inactive

Q: `Cc1cc(NC(=O)CSc2nc3ccc(Cl)cc3[nH]2)no1` was tested. Which Potency did it give?
A: inconclusive: 3.98 µM [inhibitor, full curve, poor fit]

Q: `CCC(C)NC(=O)CSc1nc2cc3c(cc2c(=O)n1CCCCCC(=O)NCc1ccc2c(c1)OCO2)OCO3` (stereo not drawn) was tested. Which Potency did it give?
A: inactive

Q: For `CCc1ccc(-n2c(C)cc(/C=N/NC(=O)c3ccncc3)c2C)cc1`, which Potency is on record?
A: inactive

Q: `O=C(Cc1ccc(Cl)cc1Cl)Nc1cccc(S(=O)(=O)Nc2ccccc2F)c1` was tested. Which Potency did it give?
A: inconclusive: 35.5 µM [inhibitor, single point]

Q: `CCOc1ccc(NC(=O)Cn2c(=O)n(-c3ccccc3)c(=O)c3ccc(C(=O)NCc4ccc5c(c4)OCO5)cc32)cc1` was tested. Which Potency did it give?
A: inactive

Q: `Cc1cccc(NC(=S)NC2CCCCC2)n1` was tested. Which Potency did it give?
A: inactive

Q: `O=C(c1ccccc1)c1ccc(C(=O)N2CCN(c3ccc(F)cc3)CC2)o1` was tested. Which Potency did it give?
A: inconclusive: 15.8 µM [inhibitor, single point]

Q: `COC(=O)c1cc(NS(=O)(=O)c2ccc(N3CCCCC3)c([N+](=O)[O-])c2)cc(C(=O)OC)c1` was tested. Which Potency did it give?
A: inconclusive: 20 µM [inhibitor, partial curve, poor fit]

Q: How did the Potency turn out when `CCOC(=O)c1nn(-c2ccccc2)c(=O)c2c(NC(C)=O)scc12` was run?
A: inactive

Q: Which Potency does the source give for `Cc1ccc(/C=C2\CCCC3=C2NC(=S)NC3c2ccc(C)cc2)cc1` (stereo not drawn) here?
A: inconclusive: 14.1 µM [inhibitor, partial curve]

Q: With `O=C1NN=C(c2ccc(Br)cc2)CC1c1ccc(Cl)cc1` (stereo not drawn) as the compound, how does the Potency read?
A: inconclusive: 20 µM [inhibitor, single point]

Q: For `CCOc1ccc(NC(=O)CN(C)c2ccc(S(=O)(=O)N(C(C)C)C(C)C)cn2)cc1OCC`, which Potency is on record?
A: inactive

Q: How did the Potency turn out when `CC(=O)Nc1ccc2sc(C)nc2c1` was run?
A: inactive

Q: For `CC(C)Cn1c2c(c(O)c(C(=O)Nc3ncccc3O)c1=O)CCCC2`, which Potency is on record?
A: inconclusive: 31.6 µM [inhibitor, partial curve]

Q: `OC1(c2cccc(C(F)(F)F)c2)CCN(Cc2nnnn2CCc2ccccc2)CC1` was tested. Which Potency did it give?
A: inactive

Q: With `C=CCc1cccc2cc(C(=O)NC3=C(C#N)CCC3)c(=O)oc12` as the compound, how does the Potency read?
A: inactive

Q: With `Cc1ccc(Cl)cc1-n1c(=O)c2sc3ccccc3c2n(Cc2ccccc2)c1=O` as the compound, how does the Potency read?
A: inactive

Q: `CCCCCSc1nnc(-c2ccc(Br)cc2)o1` was tested. Which Potency did it give?
A: inconclusive: 8.91 µM [inhibitor, full curve]

Q: With `OC1(c2ccc3ccccc3c2)CCN(Cc2ccccc2)C1` (stereo not drawn) as the compound, how does the Potency read?
A: inactive

Q: `Cn1c(=NC(=O)COc2ccccc2)sc2ccccc21` was tested. Which Potency did it give?
A: inconclusive: 7.94 µM [inhibitor, partial curve, poor fit]

Q: How did the Potency turn out when `Cc1ccc(/C=c2\sc3n(c2=O)CN(c2cccc(Br)c2)CN=3)o1` was run?
A: inconclusive: 15.8 µM [inhibitor, partial curve]

Q: Which Potency does the source give for `CC(C)c1ccc2oc(-c3ccc(NC(=O)c4ncn[nH]4)cc3)nc2c1` here?
A: inconclusive: 2 µM [inhibitor, partial curve, poor fit]

Q: How did the Potency turn out when `COc1ccc(CCNC(=O)CCn2cccc2)cc1OC` was run?
A: inactive

Q: Which Potency does the source give for `O=C(Nc1nc(-c2ccccc2)c(C(=O)c2ccccc2)s1)c1ccc(S(=O)(=O)N2CCCC2)cc1` here?
A: inactive

Q: With `COc1ccc(NCC(=O)N/N=C(\C)c2cc3ccccc3o2)cc1` as the compound, how does the Potency read?
A: inconclusive: 14.1 µM [inhibitor, partial curve]

Q: `Cn1ncc(N=Cc2ccccc2O)c1C(=O)Nc1ccccc1` was tested. Which Potency did it give?
A: inactive

Q: Which Potency does the source give for `Cc1ccc(C(=O)O)cc1N=Cc1cc(Br)cc(Br)c1O` here?
A: active: 14.1 µM

Q: For `CC1(OC(=O)C2CCCC2)C(=O)C=C2C=C3CCCCN3C=C2C1=O` (stereo not drawn), which Potency is on record?
A: inconclusive: 14.1 µM [inhibitor, partial curve]

Q: For `CNC(=O)CSc1nccn1Cc1ccc(Cl)cc1`, which Potency is on record?
A: inactive

Q: For `Cc1cc(/C=c2/sc3nc4ccccc4n3c2=O)c(C)n1-c1ccccn1`, which Potency is on record?
A: inconclusive: 3.98 µM [inhibitor, partial curve]

Q: `CCN(CC)CCNC(=O)c1cc(-c2ccco2)nc2ccccc12` was tested. Which Potency did it give?
A: inactive

Q: How did the Potency turn out when `CCOc1ccccc1Nc1nnc(SCc2ccc(C(=O)OC)o2)s1` was run?
A: inconclusive: 25.1 µM [inhibitor, partial curve]

Q: Which Potency does the source give for `CCN1/C(=C\C=C2\C(=O)N(C)C(=S)N2C)Sc2ccccc21` here?
A: active: 2 µM

Q: Which Potency does the source give for `O=C(c1ccc(COc2ccccc2[N+](=O)[O-])o1)N1CCCCC1` here?
A: inactive

Q: How did the Potency turn out when `Oc1ccc2ccccc2c1CN1CCOCC1` was run?
A: inconclusive: 3.55 µM [inhibitor, partial curve]

Q: How did the Potency turn out when `CCCCC(=O)NNC(=S)NC(=O)c1ccc([N+](=O)[O-])cc1` was run?
A: inconclusive: 22.4 µM [inhibitor, single point]

Q: For `Cc1ccccc1C(=O)c1c[nH]c(C(N)=O)c1`, which Potency is on record?
A: inactive

Q: With `CCN(CC)c1ccc(/C=N/NC(=O)c2c(Cl)c(C)nn2C)cc1` as the compound, how does the Potency read?
A: inconclusive: 1.26 µM [inhibitor, full curve]

Q: `COC(=O)c1cn[nH]c1NC(=S)Nc1ccc(C)cc1Cl` was tested. Which Potency did it give?
A: inactive

Q: For `COc1ccc(Cn2ccc3nc(C)c(C(=O)Nc4cc(C)cc(C)c4)cc3c2=O)cc1`, which Potency is on record?
A: inconclusive: 5.01 µM [activator, partial curve, poor fit]

Q: How did the Potency turn out when `CCOc1cc(NC(=S)NC)c(OCC)cc1NC(=O)c1ccc(OC)cc1` was run?
A: inactive

Q: `Cc1cc(C)c(OCC(=O)N(Cc2ccco2)Cc2ccco2)c(C)c1` was tested. Which Potency did it give?
A: inconclusive: 35.5 µM [inhibitor, single point]

Q: For `O=C(CN1c2ccccc2Sc2ccccc21)NNC(=S)Nc1ccc(Cl)cc1Cl`, which Potency is on record?
A: inconclusive: 11.2 µM [inhibitor, partial curve]

Q: `CCOC(=O)c1c(NC(=S)Nc2ccc(Cl)cc2)sc(C)c1C` was tested. Which Potency did it give?
A: inactive

Q: With `CCOc1ccc(-c2ncnn2-c2sc3c(c2C#N)CCCCC3)cc1` as the compound, how does the Potency read?
A: inconclusive: 2.24 µM [inhibitor, full curve]

Q: Which Potency does the source give for `Cc1ccc(C(=O)N/C(=C/c2ccc(-c3cccc([N+](=O)[O-])c3)o2)C(=O)NCCCN(C)C)cc1` here?
A: inconclusive: 28.2 µM [inhibitor, single point]

Q: Which Potency does the source give for `COc1ccc(NS(=O)(=O)c2ccc3oc(SC4CCOC4=O)nc3c2)cc1` (stereo not drawn) here?
A: inactive

Q: How did the Potency turn out when `COC(=O)c1cc2c([nH]c3ccccc32)c(C)n1` was run?
A: inconclusive: 3.55 µM [inhibitor, partial curve, poor fit]

Q: How did the Potency turn out when `CCC1CN(C(=O)NCc2ccc(C)cc2)c2ccccc2O1` (stereo not drawn) was run?
A: inconclusive: 28.2 µM [inhibitor, single point]

Q: Which Potency does the source give for `COC(=O)CCC(=O)OC1(C)C(=O)C=C2C=C(C3CC3)OC=C2C1=O` (stereo not drawn) here?
A: inconclusive: 14.1 µM [inhibitor, partial curve, poor fit]

Q: With `Cc1nc(N)sc1N=Nc1ccc(Br)cc1` as the compound, how does the Potency read?
A: active: 3.98 µM

Q: `CCc1ccc(/C=N/NC(=O)c2cc(-c3cccc([N+](=O)[O-])c3)n[nH]2)cc1` was tested. Which Potency did it give?
A: inconclusive: 0.891 µM [inhibitor, full curve]

Q: For `CCn1c(=N)c(C(=O)NCc2ccccc2)cc2c(=O)n3cc(C)ccc3nc21`, which Potency is on record?
A: inactive

Q: How did the Potency turn out when `COc1ccc2c(=O)cc(-c3ccccc3)oc2c1O` was run?
A: inconclusive: 11.2 µM [inhibitor, partial curve]

Q: Which Potency does the source give for `CCOc1cccc(N2C(=O)CC(NNC(=O)c3ccc(Br)o3)C2=O)c1` (stereo not drawn) here?
A: inactive

Q: How did the Potency turn out when `Cc1nnc(-n2ncc(C#N)c2N)c2nn(-c3cccc(Cl)c3)c(C)c12` was run?
A: inconclusive: 39.8 µM [activator, single point]

Q: For `S=c1[nH]nc(-c2ccco2)n1/N=C/c1cccc(Cl)c1Cl`, which Potency is on record?
A: inconclusive: 28.2 µM [inhibitor, partial curve]

Q: For `CCCCC(=O)NNC(=S)NC(=O)CCC`, which Potency is on record?
A: inconclusive: 35.5 µM [inhibitor, partial curve]

Q: With `COCCNC(=O)CSc1nc(-c2cc(OC)c(OC)c(OC)c2)[nH]c1-c1ccc(Cl)cc1` as the compound, how does the Potency read?
A: inconclusive: 11.2 µM [inhibitor, partial curve, poor fit]

Q: `CCCCCCCCCCCCC/C=C/[C@@H](O)C(CO)NC(C)=O` (stereo partly drawn) was tested. Which Potency did it give?
A: inactive

Q: `CCn1c(COc2cccc3ccccc23)nnc1SCC(=O)OC1CCCCC1` was tested. Which Potency did it give?
A: inconclusive: 39.8 µM [inhibitor, single point]

Q: For `COc1ccc2nc(NCc3ccccc3)[nH]c2c1`, which Potency is on record?
A: inactive

Q: How did the Potency turn out when `Cc1ccccc1CNc1ccc(C(CC(N)=O)NC(=O)c2ccccc2)cc1[N+](=O)[O-]` (stereo not drawn) was run?
A: inconclusive: 22.4 µM [inhibitor, partial curve]

Q: With `CCS(=O)(=O)c1nn2c(N)c(/C=C3/C=CC(=O)C(OC)=C3)c(=O)nc2s1` as the compound, how does the Potency read?
A: inconclusive: 7.94 µM [inhibitor, partial curve]

Q: Which Potency does the source give for `CCCCOC(=O)CCCN1C(=O)/C(=C2\SC(=S)N(CCCC(=O)OCCCC)C2=O)SC1=S` here?
A: inconclusive: 35.5 µM [inhibitor, partial curve, poor fit]

Q: How did the Potency turn out when `CCCC(O)c1nc2ccccc2n1Cc1ccccc1OC` (stereo not drawn) was run?
A: inactive
